Experimental data from PubChem BioAssay AID1745853 (National Center for Advancing Translational Sciences (NCATS), 2022).
“And” between values parts separate entries of the source, which are not always exact repeats. Equal values may be shown once. This is one part of the list. Shown are side measurements of this screen, not its main read-out; they come without a call.

Legend:
Assay in all cases: Primary Screen for Target Class Profiling of Small Molecule Inhibitors of Methyltransferases
[1] = molecular target: Glycine N-methyltransferase (Homo sapiens) (UniProt Q14749); settings: purified enzyme, MTase-Glo SAH luminescence; measured here: GNMT inhibition; at 40 µM; stronger effect = lower value
Outline: (§1)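 Each enzyme was assayed with SAM and its substrate. SAH formation detected by MTase-Glo luminescence; single-point 40 uM screen[…].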

[2] = molecular target: Guanidinoacetate N-methyltransferase (Homo sapiens) (UniProt Q14353); settings: purified enzyme, MTase-Glo SAH luminescence; measured here: GAMT inhibition; at 40 µM; stronger effect = lower value
Outline: as §1

[3] = molecular target: Histamine N-methyltransferase (Homo sapiens) (UniProt P50135); settings: purified enzyme, MTase-Glo SAH luminescence; measured here: HNMT inhibition; at 40 µM; stronger effect = lower value
Outline: as §1

[4] = molecular target: Nicotinamide N-methyltransferase (Homo sapiens) (UniProt P40261); settings: purified enzyme, MTase-Glo SAH luminescence; measured here: NNMT inhibition; at 40 µM; stronger effect = lower value
Outline: as §1

[5] = molecular target: Phenylethanolamine N-methyltransferase (Homo sapiens) (UniProt P11086); settings: purified enzyme, MTase-Glo SAH luminescence; measured here: PNMT inhibition; at 40 µM; stronger effect = lower value
Outline: as §1
% is scaled to controls: 0 for no effect and ±100 for the full control effect.

O=C(CC1CCCC1)N1CC[C@@H]2COCCN(Cc3ccccc3)[C@@H]2C1
activity change, negative = inhibition [1]: -1.66%
activity change, negative = inhibition [2]: 2.15%
activity change, negative = inhibition [3]: 2.22%
activity change, negative = inhibition [4]: -5.77%
activity change, negative = inhibition [5]: 0.394%

CN(C)CCc1c[nH]c2ccc(C[C@H]3COC(=O)N3)cc12
activity change, negative = inhibition [1]: -2.66%
activity change, negative = inhibition [2]: -0.661%
activity change, negative = inhibition [3]: -4.64%
activity change, negative = inhibition [4]: -16.5%
activity change, negative = inhibition [5]: 1.44%

O=C(CCn1ccc2cc(S(=O)(=O)N3CCCCC3)ccc21)NCc1ccccc1Cl
activity change, negative = inhibition [1]: 1.1%
activity change, negative = inhibition [2]: 3.72%
activity change, negative = inhibition [3]: -0.913%
activity change, negative = inhibition [4]: -4.3%
activity change, negative = inhibition [5]: -3.91%

COc1ccccc1-c1nocc1CCC(=O)O
activity change, negative = inhibition [1]: -0.945%
activity change, negative = inhibition [2]: -0.336%
activity change, negative = inhibition [3]: 1.86%
activity change, negative = inhibition [4]: -1.76%
activity change, negative = inhibition [5]: 3.64%

COCCn1cnnc1C(C)NC(=O)c1cn(C2CCC(N)CC2)nn1 (stereo not drawn)
activity change, negative = inhibition [1]: -3.16%
activity change, negative = inhibition [2]: -4.61%
activity change, negative = inhibition [3]: -1.81%
activity change, negative = inhibition [4]: -11.4%
activity change, negative = inhibition [5]: -4.21%

CN(C)CCC=C1c2ccccc2C=Cc2ccccc21
activity change, negative = inhibition [1]: -4.6%
activity change, negative = inhibition [2]: 2.38%
activity change, negative = inhibition [3]: -47.4%
activity change, negative = inhibition [4]: -11.2%
activity change, negative = inhibition [5]: 1.23%

CNc1cc(C2CC(NC(=O)COc3ccc(Cl)cc3C)C2)nc(N)n1 (stereo not drawn)
activity change, negative = inhibition [1]: -9.6%
activity change, negative = inhibition [2]: -9.67%
activity change, negative = inhibition [3]: -59.2%
activity change, negative = inhibition [4]: -33.2%
activity change, negative = inhibition [5]: -14.2%

COc1ccc(-c2ccc(-c3cn(C(=O)N4CCCCC4c4ccccc4)nn3)cc2)cc1 (stereo not drawn)
activity change, negative = inhibition [1]: 5.86%
activity change, negative = inhibition [2]: -25.3%
activity change, negative = inhibition [3]: 10.9%
activity change, negative = inhibition [4]: -30%
activity change, negative = inhibition [5]: -2.78%

C/C=C/C=C/C1=C2C(=O)C3(C)C4C(C(=O)CC(O)/C=C/C)=C(O1)C1(C)C2C2(C)OC1(O)C4(C)OC23O (stereo not drawn)
activity change, negative = inhibition [1]: -6.38%
activity change, negative = inhibition [2]: -5.8%
activity change, negative = inhibition [3]: 4.23%
activity change, negative = inhibition [4]: -14.9%
activity change, negative = inhibition [5]: -0.647%

CCCn1c(=O)c2ccccc2n2c(=O)n(CC(=O)Nc3cc(C)cc(C)c3)nc12
activity change, negative = inhibition [1]: 4.37%
activity change, negative = inhibition [2]: 3.47%
activity change, negative = inhibition [3]: 9.32%
activity change, negative = inhibition [4]: -2.84%
activity change, negative = inhibition [5]: 4.64%

CC(C)(F)C[C@H](N[C@@H](c1ccc(-c2ccc(S(C)(=O)=O)cc2)cc1)C(F)(F)F)C(=O)NC1(C#N)CC1
activity change, negative = inhibition [2]: -8.41% and 1.72%
activity change, negative = inhibition [4]: -23.3% and -17.1%
activity change, negative = inhibition [5]: -3.22% and -3.19%

CC1CCCCN1CCCN1C(=O)c2cc3occc3n2CC1(C)C(=O)NC1CCCCCC1 (stereo not drawn)
activity change, negative = inhibition [1]: -6.79%
activity change, negative = inhibition [2]: -4.03%
activity change, negative = inhibition [3]: -8.93%
activity change, negative = inhibition [4]: -1.33%
activity change, negative = inhibition [5]: -6.22%

Cc1cccc(N2C(=O)c3cc(-c4ccccc4)nn3CC2(C)C(=O)NCc2ccccc2)c1C (stereo not drawn)
activity change, negative = inhibition [1]: 2.42%
activity change, negative = inhibition [2]: 0.718%
activity change, negative = inhibition [3]: 3%
activity change, negative = inhibition [4]: -1.86%
activity change, negative = inhibition [5]: 0.634%

CN1C(=O)c2cc(C(=O)NCc3ccccc3F)nn2CC1(C)C(=O)NC1CCCCCC1 (stereo not drawn)
activity change, negative = inhibition [1]: 4.07%
activity change, negative = inhibition [2]: 0%
activity change, negative = inhibition [3]: -0.723%
activity change, negative = inhibition [4]: 3.33%
activity change, negative = inhibition [5]: -0.143%

CC(=O)Nc1c2n(c3ccccc13)CC(C)(C(=O)NC1CCCC1)N(C(C)c1ccccc1)C2=O (stereo not drawn)
activity change, negative = inhibition [1]: 1.68%
activity change, negative = inhibition [2]: 4.04%
activity change, negative = inhibition [3]: -5.46%
activity change, negative = inhibition [4]: 5.42%
activity change, negative = inhibition [5]: 3.41%

COc1ccccc1CN(C)C1CCc2ccccc21 (stereo not drawn)
activity change, negative = inhibition [1]: -3.27%
activity change, negative = inhibition [2]: -7.74%
activity change, negative = inhibition [3]: -33.6%
activity change, negative = inhibition [4]: -11.2%
activity change, negative = inhibition [5]: -8.23%

O=C(NC1CCCCC1)c1nn(CCOc2ccccc2)c2c1CNCC2
activity change, negative = inhibition [1]: -8.7%
activity change, negative = inhibition [2]: -6.74%
activity change, negative = inhibition [3]: -9.97%
activity change, negative = inhibition [4]: -15.6%
activity change, negative = inhibition [5]: -15.6%

CC(=O)O[C@@H]1C(=O)C(C)=C(CCC(C)CC(=O)O)[C@@]2(C)CCCC(C)(C)C12 (stereo partly drawn)
activity change, negative = inhibition [1]: -2.62%
activity change, negative = inhibition [2]: -0.876%
activity change, negative = inhibition [3]: 5.28%
activity change, negative = inhibition [4]: -15.3%
activity change, negative = inhibition [5]: -5.43%

CC(C)OCCCn1c(=O)c2ccccc2n2c(CCC(=O)NCCc3ccccc3)nnc12
activity change, negative = inhibition [1]: -9.35%
activity change, negative = inhibition [2]: 2.26%
activity change, negative = inhibition [3]: -5.65%
activity change, negative = inhibition [4]: 5.11%
activity change, negative = inhibition [5]: -7.07%

O=C(N[C@H]1CCOC[C@H]1C1CCOCC1)c1cc2ncccn2n1
activity change, negative = inhibition [1]: -1.21%
activity change, negative = inhibition [2]: 0.301%
activity change, negative = inhibition [3]: 0.386%
activity change, negative = inhibition [4]: 0.444%
activity change, negative = inhibition [5]: 2.84%

Cc1cc2c(cc3n2CC(C)(C(=O)NC2CCCCC2)N(Cc2cccnc2)C3=O)o1 (stereo not drawn)
activity change, negative = inhibition [1]: 4.89%
activity change, negative = inhibition [2]: 1.11%
activity change, negative = inhibition [3]: 9.52%
activity change, negative = inhibition [4]: 12.2%
activity change, negative = inhibition [5]: 5.7%

COc1cccc(Cn2ncc3c4sc(S(C)=O)cc4n(C)c3c2=O)c1 (stereo not drawn)
activity change, negative = inhibition [1]: -1.16%
activity change, negative = inhibition [2]: 1.89%
activity change, negative = inhibition [3]: 7.2%
activity change, negative = inhibition [4]: -8.89%
activity change, negative = inhibition [5]: 7.21%

N#CC(CCCN1CCC(O)(c2ccc(Cl)cc2)CC1)(c1ccccc1)c1ccccc1
activity change, negative = inhibition [1]: 3.85%
activity change, negative = inhibition [2]: 1.94%
activity change, negative = inhibition [3]: -0.04%
activity change, negative = inhibition [4]: -33.1%
activity change, negative = inhibition [5]: -11.1%

C[C@@H]1O[C@@H](O[C@H]2[C@H](O[C@H]3CC[C@@]4(C)C(CC[C@]5(C)C4CC=C4C6CC(C)(C)CC[C@]6(C(=O)O[C@@H]6O[C@H](CO[C@@H]7O[C@H](CO)[C@@H](O[C@@H]8O[C@@H](C)[C@H](O)[C@@H](O)[C@H]8O)[C@H](O)[C@H]7O)[C@@H](O)[C@H](O)[C@H]6O)CC[C@]45C)[C@]3(C)CO)OC[C@H](O)[C@@H]2O)[C@H](O)[C@H](O)[C@H]1O (stereo partly drawn)
activity change, negative = inhibition [1]: 0%
activity change, negative = inhibition [2]: -1.54%
activity change, negative = inhibition [3]: 4.43%
activity change, negative = inhibition [4]: -15.8%
activity change, negative = inhibition [5]: 7.32%

CC1(C(=O)NCc2ccccc2)Cn2c(cc3ccccc32)C(=O)N1CCC1=CCCCC1 (stereo not drawn)
activity change, negative = inhibition [1]: -1.22%
activity change, negative = inhibition [2]: 2.54%
activity change, negative = inhibition [3]: -3.1%
activity change, negative = inhibition [4]: -5.34%
activity change, negative = inhibition [5]: -8.05%

CC(C)CCn1c(=O)c2ccc(C(=O)NC3CCCCC3)cc2n2c(=O)n(CC(=O)c3ccccc3)nc12
activity change, negative = inhibition [1]: 5.28%
activity change, negative = inhibition [2]: 0.868%
activity change, negative = inhibition [3]: 5.24%
activity change, negative = inhibition [4]: 4.84%
activity change, negative = inhibition [5]: 6.42%

CC1(CCC(=O)N2CCCC2C(=O)Nc2ccccc2Oc2cccnc2)CC1 (stereo not drawn)
activity change, negative = inhibition [1]: -3.68%
activity change, negative = inhibition [2]: -4.28%
activity change, negative = inhibition [3]: -2.51%
activity change, negative = inhibition [4]: -12.2%
activity change, negative = inhibition [5]: 7.03%

CC(C)OCCCNC(=O)C1(C)Cn2c(cc3ccccc32)C(=O)N1Cc1ccccc1F (stereo not drawn)
activity change, negative = inhibition [1]: 2.41%
activity change, negative = inhibition [2]: 4.06%
activity change, negative = inhibition [3]: -2.24%
activity change, negative = inhibition [4]: 7.02%
activity change, negative = inhibition [5]: 0.702%

CSCCC(=O)N1CCC(C2CCN(c3ncccn3)CC2)C1 (stereo not drawn)
activity change, negative = inhibition [1]: -2.71%
activity change, negative = inhibition [2]: 1.3%
activity change, negative = inhibition [3]: 0.556%
activity change, negative = inhibition [4]: -4.79%
activity change, negative = inhibition [5]: 0.821%

CN1CCN(CCCNC(=O)c2cc3n(n2)CC(C)(C(=O)NC2CCCCCC2)N(C)C3=O)CC1 (stereo not drawn)
activity change, negative = inhibition [1]: 4.07%
activity change, negative = inhibition [2]: 0%
activity change, negative = inhibition [3]: 1.71%
activity change, negative = inhibition [4]: 4.79%
activity change, negative = inhibition [5]: -0.523%

Cc1ccc(C(=O)N2CCC3(CC2)N=C(c2cccc(Br)c2)NO3)s1
activity change, negative = inhibition [1]: -0.842%
activity change, negative = inhibition [2]: -1.61%
activity change, negative = inhibition [3]: -3.68%
activity change, negative = inhibition [4]: -3.42%
activity change, negative = inhibition [5]: -17.5%

CC(=O)OC1C(O)CC2(C)C(CCC3(C)C2CC=C2C4C5(CCC(CO[C@@H]6O[C@H](CO)[C@@H](O)[C@H](O)[C@H]6O)(OC5=O)C4(C)O)C(O)CC23C)C1(C)C (stereo partly drawn)
activity change, negative = inhibition [1]: 2.99%
activity change, negative = inhibition [2]: 6.21%
activity change, negative = inhibition [3]: 5.29%
activity change, negative = inhibition [4]: -6.08%
activity change, negative = inhibition [5]: 4.65%

C[C@]12CC/C(=N\OCC(=O)O)C=C1CC[C@@H]1[C@@H]2[C@@H](O)C[C@@]2(C)[C@H]1CC[C@]2(O)C(=O)CO
activity change, negative = inhibition [1]: 0.075%
activity change, negative = inhibition [2]: 7.18%
activity change, negative = inhibition [3]: 3.86%
activity change, negative = inhibition [4]: -13.4%
activity change, negative = inhibition [5]: -5.42%

Cc1ccc(C)c(N2C(=O)c3cc4occc4n3CC2(C)C(=O)NC2CCCCC2)c1 (stereo not drawn)
activity change, negative = inhibition [1]: 3.24%
activity change, negative = inhibition [2]: -7.19%
activity change, negative = inhibition [3]: -14.7%
activity change, negative = inhibition [4]: 9.65%
activity change, negative = inhibition [5]: 0.955%

CC(=O)NCC(=O)N1C2CCC1c1cc(Nc3ncc(C(F)(F)F)c(NC4CCC4)n3)ccc12 (stereo not drawn)
activity change, negative = inhibition [1]: 2.7%
activity change, negative = inhibition [2]: 3.26%
activity change, negative = inhibition [3]: -5.02%
activity change, negative = inhibition [4]: -64.6%
activity change, negative = inhibition [5]: 1.31%

CCCn1c(=O)c2ccc(C(=O)NC(C)C)cc2n2c(=O)n(CC(=O)NC(C)CC)nc12 (stereo not drawn)
activity change, negative = inhibition [1]: 7.33%
activity change, negative = inhibition [2]: 0%
activity change, negative = inhibition [3]: 8.09%
activity change, negative = inhibition [4]: 6.92%
activity change, negative = inhibition [5]: 5.78%
